Test results: PMC10017364
Results are given in words; binding and its absence hold for the method and conditions named. Binding seen in cells or lysates may run through a third protein.

B1: delta subunit of the adaptor complex-3 (AP3δ1) (protein, UniProt O14617 1-1153)
chain: MALKMVKGSIDRMFDKNLQDLVRGIRNHKEDEAKYISQCIDEIKQELKQDNIAVKANAVCKLTYLQMLGYDISWAAFNIIEVMSASKFTFKRIGYLAASQSFHEGTDVIMLTTNQIRKDLSSPSQYDTGVALTGLSCFVTPDLARDLANDIMTLMSHTKPYIRKKAVLIMYKVFLKYPESLRPAFPRLKEKLEDPDPGVQSAAVNVICELARRNPKNYLSLAPLFFKLMTSSTNNWVLIKIIKLFGALTPLEPRLGKKLIEPLTNLIHSTSAMSLLYECVNTVIAVLISLSSGMPNHSASIQLCVQKLRILIEDSDQNLKYLGLLAMSKILKTHPKSVQSHKDLILQCLDDKDESIRLRALDLLYGMVSKKNLMEIVKKLMTHVDKAEGTTYRDELLTKIIDICSQSNYQYITNFEWYISILVELTRLEGTRHGHLIAAQMLDVAIRVKAIRKFAVSQMSALLDSAHLLASSTQRNGICEVLYAAAWICGEFSEHLQEPHHTLEAMLRPRVTTLPGHIQAVYVQNVVKLYASILQQKEQAGEAEGAQAVTQLMVDRLPQFVQSADLEVQERASCILQLVKHIQKLQAKDVPVAEEVSALFAGELNPVAPKAQKKVPVPEGLDLDAWINEPLSDSESEDERPRAVFHEEEQRRPKHRPSEADEEELARRREARKQEQANNPFYIKSSPSPQKRYQDTPGVEHIPVVQIDLSVPLKVPGLPMSDQYVKLEEERRHRQKLEKDKRRKKRKEKEKKGKRRHSSLPTESDEDIAPAQQVDIVTEEMPENALPSDEDDKDPNDPYRALDIDLDKPLADSEKLPIQKHRNTETSKSPEKDVPMVEKKSKKPKKKEKKHKEKERDKEKKKEKEKKKSPKPKKKKHRKEKEERTKGKKKSKKQPPGSEEAAGEPVQNGAPEEEQLPPESSYSLLAENSYVKMTCDIRGSLQEDSQVTVAIVLENRSSSILKGMELSVLDSLNARMARPQGSSVHDGVPVPFQLPPGVSNEAQYVFTIQSIVMAQKLKGTLSFIAKNDEGATHEKLDFRLHFSCSSYLITTPCYSDAFAKLLESGDLSMSSIKVDGIRMSFQNLLAKICFHHHFSVVERVDSCASMYSRSIQGHHVCLLVKKGENSVSVDGKCSDSTLLSNLLEEMKATLAKC
B2: ERGIC53 (protein, UniProt P49257 31-510)
chain: DGVGGDPAVALPHRRFEYKYSFKGPHLVQSDGTVPFWAHAGNAIPSSDQIRVAPSLKSQRGSVWTKTKAAFENWEVEVTFRVTGRGRIGADGLAIWYAENQGLEGPVFGSADLWNGVGIFFDSFDNDGKKNNPAIVIIGNNGQIHYDHQNDGASQALASCQRDFRNKPYPVRAKITYYQNTLTVMINNGFTPDKNDYEFCAKVENMIIPAQGHFGISAATGGLADDHDVLSFLTFQLTEPGKEPPTPDKEISEKEKEKYQEEFEHFQQELDKKKEEFQKGHPDLQGQPAEEIFESVGDRELRQVFEGQNRIHLEIKQLNRQLDMILDEQRRYVSSLTEEISKRGAGMPGQHGQITQQELDTVVKTQHEILRQVNEMKNSMSETVRLVSGMQHPGSAGGVYETTQHFIDIKEHLHIVKRDIDNLVQRNMPSNEKPKCPELPPFPSCLSTVHFIIFVVVQTVLFIGYIMYRSQQEAAAKKFF

Legend:
[1] = target: EGFR bearing an EGFP and a biotin acceptor peptide (Bio tag) at its C-terminus (EGFR-EGFP-Bio), full length (human) (UniProt P00533); assay: pull-down; streptavidin pull-down: lysates of HEK293T cells coexpressing HA-BirA and the EGFP-Bio-tagged EGFR construct incubated with Dynabeads M-280 Streptavidin overnight at 4 °C; lysis buffer 110 mM potassium acetate, 20 mM Hepes pH 7.2, 2 mM magnesium acetate, 0.5% Triton X-100, 1 mM DTT; bound proteins by immunoblotting
[2] = target: HA- and FLAG-tagged EGFR (HA-EGFR-FLAG) (human) (UniProt P00533); assay: co-IP; lysates of HEK293T cells expressing FLAG-tagged proteins incubated with anti-FLAG M2 agarose beads overnight at 4 °C; eluted with FLAG peptides; bound proteins by immunoblotting

Binder	binding [1]	binding [2]
B1	no binding	–
B2	–	no binding
